This note sets out measurements from the supplement of paper PMC11417369.

This is one part of the list.

The subject of this assay is PfAP2-HC AP2 domain (GST-tagged). Briefly: gcPBM binding intensity (ln(normalized median fluorescence intensity)); higher = stronger DNA binding. The gist of the method: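 Each value is the highest Masliner-normalised natural-log median intensity across replicate spots of either orientation of a probe. The probes were primer-extended double-stranded 36-bp intergenic genomic sequences on an Agilent 4 × 180k array, alongside negative controls, exposed for 1 h to GST-tagged P. falciparum DNA-binding domains expressed in E. coli. Bound protein was picked up with Alexa488 anti-GST antibody and scanned at 488 nm.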
As to “AAAAAATAATAATAAAATGAATAGATATGTATTTAT [TGCATGCA_negctrl_site210]”, the “gcPBM binding intensity (ln)” value was determined as 9.75.

“AATAATATATATTGTACACACAAAATGGGAAAAAAA [CACACA_site5100]”: the “gcPBM binding intensity (ln)” value is 10.

Take “ATATATATATATATTTGTACAGAAAATATTTTAATA [XGTACX_site3706]”: the “gcPBM binding intensity (ln)” value came out at 9.64.

For “AACATATTATCTTGTGAAAATAATATAAGTCACATT [TGCATGCA_negctrl_site339]”, the “gcPBM binding intensity (ln)” value stood at 9.7.

Take “AGCAGAGTTACAATTTGTACGTAATTGATATAGATA [XGTACX_site4051]”: the “gcPBM binding intensity (ln)” value was 9.62.

With “ACAAAATGTAAATAAACACACATATATATATATATA [CACACA_site1281]”, the “gcPBM binding intensity (ln)” value turned out to be 9.85.

With “ATAATTTATATTCAGAAACACACGAAAAAAAAAAAT [CACACA_site1296]”, the “gcPBM binding intensity (ln)” value came to 9.77.

For the sequence “AACTAAACAAAAGTTACACACATCATACGATATTAT [CACACA_site3180]”, the “gcPBM binding intensity (ln)” value was 9.81.

On to “TATATTATATACGTCTGTACACAAATGAGAGGTAAA [XGTACX_site5538]”, for which the “gcPBM binding intensity (ln)” value came to 9.68.

In the case of “ACCATATAATTTTTTTGTACATAATGATTTTTTTTT [XGTACX_site1104]”, the “gcPBM binding intensity (ln)” value was 9.78.

Consider “ATGTTAAGAATAATTAGTACTTACATATGTATAATA [XGTACX_site4419]”, for which the “gcPBM binding intensity (ln)” value was 9.54.

In the case of “TAAATATTTTATTGTACACACTTTTTATGAATGATG [CACACA_site5694]”, the “gcPBM binding intensity (ln)” value came out at 9.73.

For “ATATCCCATATGTAATGTACTTACACTTTCTTAATT [XGTACX_site7020]”, the “gcPBM binding intensity (ln)” value was found to be 9.87.

For the sequence “AATATTTAAAACAAATCACACATGTATCCATAAATG [CACACA_site5308]”, the “gcPBM binding intensity (ln)” value came to 9.67.

With “ACATAAAATAAATATACACACATATGTATATATTAT [CACACA_site3041]”, the “gcPBM binding intensity (ln)” value amounted to 9.9.

Regarding “ATAAAATATATATGCACACACATATATATTTCATAC [CACACA_site3547]”, the “gcPBM binding intensity (ln)” value was 10.2.

Turning to “ATATATATATATATGTGTACTTATAAATATATCTGT [XGTACX_site4337]”, the “gcPBM binding intensity (ln)” value came out at 9.68.

Take “AAAAGAATTTAGAAGGCATGCACTTAAACATGGATA [TGCATGCA_site699]”: the “gcPBM binding intensity (ln)” value was 10.1.

As for “ATATTTATATATATATGTACATATGTGTGTTTTTAT [XGTACX_site3956]”, the “gcPBM binding intensity (ln)” value was 9.91.

Turning to “AAAAAAATAATGTACACACACATATCTGTTTATATA [CACACA_site4270]”, the “gcPBM binding intensity (ln)” value worked out at 10.4.

As for “ATATATAACTTTTCTTAACACACAAAAAACAAAAAT [CACACA_site8748]”, the “gcPBM binding intensity (ln)” value was 9.79.

Turning to “TCATAAACATTATGCACACAAAAATAAAAAAAAATA [CACACA_site1115]”, the “gcPBM binding intensity (ln)” value worked out at 10.

“AGGGAATAATATTAATGTACATATATGAACTTGTTT [XGTACX_site6089]”: the “gcPBM binding intensity (ln)” value amounted to 9.68.

Consider “TATAAAAAGGAAAAATAAAAATAAAAATAAAAATTA [CACACA_negctrl_site1822]”, for which the “gcPBM binding intensity (ln)” value amounted to 9.44.

As to TCTTTTAAAAATTAAGTGCATGTCCTTATAACAAAA, the “gcPBM binding intensity (ln)” value is 9.32.

With “AAAAAAAATTAGGAAACATGCATGTCCCGATAAATA [TGCATGCA_site149]”, the “gcPBM binding intensity (ln)” value was 9.74.

For the sequence “AGATATATTATTAGGTGTACTATAAAATAAATTCAC [XGTACX_site221]”, the “gcPBM binding intensity (ln)” value was 9.59.

Turning to “CGAACAAACAAATAAACACACAAAAAAAGATATATA [CACACA_site6944]”, the “gcPBM binding intensity (ln)” value is 9.92.

Consider “AAAATCAAGTAGTATAAAGTAAGTATCATAAAAATA [CACACA_negctrl_site1554]”, for which the “gcPBM binding intensity (ln)” value was found to be 9.73.

Regarding “GTACACTAATTATGTGCACACAAATTAAAGGTCTAC [CACACA_site146]”, the “gcPBM binding intensity (ln)” value worked out at 10.3.

As to ATAATAAAATGGAGAGTGCATACATGTTTATTTTAT, the “gcPBM binding intensity (ln)” value was found to be 9.82.

In the case of “TGTAGTTTGTCCCATGCATGTTCCATTAAAATATAT [TGCATGCA_site854]”, the “gcPBM binding intensity (ln)” value worked out at 9.85.

As to “TTAACGTAAAATATAGTGCATAGTATCATATTGATA [GTGCAC_site9527]”, the “gcPBM binding intensity (ln)” value worked out at 9.78.

Consider “CAATCAAAGAAACACACACACACCTAAACATAAAAG [CACACA_site2756]”, for which the “gcPBM binding intensity (ln)” value is 11.7.

Consider “AATGTATATATGTAATGTACATATATAATGTATATA [XGTACX_site6510]”, for which the “gcPBM binding intensity (ln)” value was 9.79.

Turning to “TTACTCATGAAAGATACACACATTCATTATATATAT [CACACA_site3252]”, the “gcPBM binding intensity (ln)” value was found to be 9.88.

“TATATAAACCCGTACACACACATATATGTATATATA [CACACA_site3507]”: the “gcPBM binding intensity (ln)” value came out at 10.3.

“AAATTTACAATACATTGTACATATTAATAATATTCC [XGTACX_site3646]”: the “gcPBM binding intensity (ln)” value was 9.49.

“AGACATAAGATAATTACACACAATACATCCCTATAT [CACACA_site2227]”: the “gcPBM binding intensity (ln)” value was found to be 10.2.

As to “AATAAAAATTTACTTTGTACACATATTAAATTCAAT [XGTACX_site1957]”, the “gcPBM binding intensity (ln)” value was determined as 9.5.

“TACTTCTACAAGAGAAGTACAATATTTTTTATATTA [XGTACX_site8351]”: the “gcPBM binding intensity (ln)” value turned out to be 9.41.

“GTGTGTTGTATATACTGTACATACTTTATATATAGT [XGTACX_site1876]”: the “gcPBM binding intensity (ln)” value amounted to 10.4.

For the sequence “TATAACAAGTAATGTTGTACATTGTATTATGTAATA [XGTACX_site6372]”, the “gcPBM binding intensity (ln)” value worked out at 9.65.

In the case of “AAATGTGTTTATTTAACACACAAAAGAAAAAATATA [CACACA_site6993]”, the “gcPBM binding intensity (ln)” value worked out at 10.1.

For “AATGTAAAATATATGTGTACATATGTTTATATATAT [XGTACX_site2216]”, the “gcPBM binding intensity (ln)” value came to 9.84.

Turning to “AAAAAACTTTTAAGCACACACATAGATAATATAGAT [CACACA_site6835]”, the “gcPBM binding intensity (ln)” value is 10.4.

Regarding “TTCCCTTTTGTAAAATGTACATATATATTTAAACAA [XGTACX_site3263]”, the “gcPBM binding intensity (ln)” value was 9.56.

For the sequence “TTTTTATTAAAATGTATTTTAGGAAAAAACAAAAAA [XGTACX_negctrl_site437]”, the “gcPBM binding intensity (ln)” value stood at 9.36.

Regarding “TAAGTTCCCTTTGAATGTACATATAATGAAAAGAAA [XGTACX_site826]”, the “gcPBM binding intensity (ln)” value came to 9.51.

As to “AATATTAACAATCGCACACATATTATTTTTCCAAAA [CACACA_site4982]”, the “gcPBM binding intensity (ln)” value is 9.82.

For “TGAAATGGAAACAACTGTACAAAATAAATATGATAT [XGTACX_site1311]”, the “gcPBM binding intensity (ln)” value was determined as 9.85.

On to “ATATAAATATAGCATACACACAAAAAAATAAAATAA [CACACA_site2333]”, for which the “gcPBM binding intensity (ln)” value stood at 10.1.

Take “TTTTTTTTTTTTGTCACACATATTTGTATTAATCAT [CACACA_site5235]”: the “gcPBM binding intensity (ln)” value was determined as 9.66.

“AAATGAAATAAATGTAGTACACATATACAATATATA [XGTACX_site6951]”: the “gcPBM binding intensity (ln)” value was determined as 9.83.

Regarding “TGTATATCATATATTTGTACTCAATTAATATAAACA [XGTACX_site3970]”, the “gcPBM binding intensity (ln)” value came to 9.36.

On to “TATGGAAGAAAATATACACACAAAAAAAAAAAATGT [CACACA_site1486]”, for which the “gcPBM binding intensity (ln)” value was 10.2.

As to ATACTTTTATTTTTGGTGCATATATCATGTAGACGT, the “gcPBM binding intensity (ln)” value is 9.64.
